Laboratory results taken from PubChem BioAssay AID2546 (National Center for Advancing Translational Sciences (NCATS), 2010).
Screen size: about 310,000 compounds; about 11,000 (3.5%) were called active. The inconclusive results got no clear call from the source; some entries with a clear call stand among them for comparison. Calls follow the shape of the dose curve; as a rule, active = well fitted inhibition curve with a large enough effect; inconclusive = small, poorly fitted or top-dose-only effect, or effect the other way; inactive = flat fitted curve, though single readings scatter. No potency is given beside an inconclusive call; the fits are too rough.

Assay: VP16 counterscreen qHTS for inhibitors of ROR gamma transcriptional activity;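 also: Gal4-VP16 expression switched on by copper sulfate through the metallothionein promoter; nearly all actives have a fitted effect of over 50% in size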
Details: Drosophila S2 Gal4-VP16 UAS-luciferase, luminescence, 20 h; activity, negative = inhibition: at 53.6 µM (top of the series)
% is scaled to controls: 0 for no effect and ±100 for the full control effect; potency is read from the fitted curve at half-maximal effect; tags tell the direction and shape of the fitted curve.

Structure (SMILES)	Potency	activity, negative = inhibition
CCn1c(O)c(N=NC2=NC(=O)CS2)c2ccccc21	inconclusive [inhibitor, single point]	–
Cc1cccc(NC(=O)c2nc[nH]c2C(=O)NCC(=O)OC(C)(C)C)c1	inconclusive [inhibitor, single point]	–
CCc1ccc(C(=O)NC(=S)NCc2cccnc2)cc1	inconclusive [inhibitor, single point]	–
COc1ccc(NC(=O)c2ccc(Cl)cc2)c[n+]1[O-]	–	inactive: 2.85%
O=C1CCCCN1CCC(=O)N1CCCC(Nc2ccccc2)C1 (stereo unspecified)	inconclusive [inhibitor, partial curve, poor fit]	–
CCOC(=O)c1ccc(NC(=S)N2CCSC2c2c(F)cc(F)cc2F)cc1 (stereo unspecified)	inconclusive [inhibitor, single point]	–
O=C1C(Cl)=C(Nc2ccccc2)C(=O)c2ccccc21	active: 12.6 µM	–
CCCn1c(=O)c(C(=O)NCCCc2ccccc2)c(O)c2ccccc21	inconclusive [inhibitor, single point]	–
CC(C)(C)NC(=O)CSC(=Nc1ccccc1F)NC#N	inconclusive [inhibitor, single point]	–
COc1ccc(C2CC(c3c(-c4ccccc4)c4cc(Cl)ccc4[nH]c3=O)=NN2C(=O)CCC(=O)O)cc1 (stereo unspecified)	–	inactive: -4.24%
O=C(CC1CC2CCC1C2)NCc1cccs1 (stereo unspecified)	–	inactive: 17.1%
CCn1c2ccccc2c2cc(/C=N/NC(=O)c3ccccc3)ccc21	inconclusive [inhibitor, single point]	–
O=c1[nH]c(C2CCCN(S(=O)(=O)c3ccccc3F)C2)nc2c1nnn2Cc1ccccc1Cl (stereo unspecified)	inconclusive [inhibitor, partial curve]	–
Cc1cccc(C)c1NC(=O)C(Cl)=C(Cl)Cl	–	inactive: -4.87% [at 10 µM]
C/C(N)=C(/C#N)C(=O)CSc1nn(-c2ccc(Cl)cc2)c(=S)s1	inconclusive [inhibitor, partial curve]	–
COc1ccccc1/C=C/C(=O)/C=C/c1ccccc1O	inconclusive [inhibitor, single point]	–
CC(=O)N1CC2([N+](=O)[O-])CN(C(C)=O)CC([N+](=O)[O-])(C1)C2(C)C	–	inactive: 4.42%
CN(C)c1nc(SCc2ccc(Cl)cc2)nc2c1CCCC2	inconclusive [inhibitor, single point]	–
c1ccc(Nc2nc3ccccc3[nH]2)nc1	inconclusive [inhibitor, single point]	–
Oc1cccc2c(NC(=S)Nc3ccc(OC(F)F)cc3)cccc12	active: 11.2 µM	–
CC(C)(C)C(=O)Nc1ccc(-c2cn3cccnc3n2)cc1	inconclusive [inhibitor, partial curve, poor fit]	–
O=C(Nc1cccc(-c2csc(Nc3ccc(Cl)cc3)n2)c1)c1cc([N+](=O)[O-])cc(C(F)(F)F)c1	–	inactive: -8.72%
CC(C)(C)c1nnc(NC(=O)c2cccnc2Cl)s1	–	inactive: -15.6%
CCCc1nc(SCC(=O)c2ccc(F)cc2)c2ccccc2n1	inconclusive [inhibitor, single point]	–
COc1cc(C)ccc1OCc1cc(C(=O)N2CCCCCC2)no1	inconclusive [inhibitor, single point]	–
COc1ccc(Cc2nnc(NC(=O)Nc3cccc(OC)c3)s2)cc1	–	inactive: -2.04%

Structure (SMILES)	Potency	activity, negative = inhibition
Cc1ccc(S(=O)(=O)c2c(CO)c(-c3ccccc3)nn2C)cc1	–	inactive: -6.45%
C/C=C\C1=C(CO)[C@H](O)[C@H]2OC2[C@@H]1O (stereo partly specified)	–	inactive: 7.65% [at 10 µM]
O=C(CCSc1ccccc1)Nc1nc2c(s1)COc1ccccc1-2	inconclusive [inhibitor, single point]	–
O=C(CC(=O)NCc1ccc(Cl)cc1)NCc1ccc(Cl)cc1	–	inactive: -1.42%
Cc1cc(C)n(-c2nc(NCc3cccnc3)c3c4c(sc3n2)COC(C)(C)C4)n1	active: 6.31 µM	–
CC(C)NC(=O)CSc1nnc(-c2ccc(C(C)(C)C)cc2)n1C	inconclusive [inhibitor, single point]	–
COc1ccc(COC(=O)c2ccc(Cl)c(S(=O)(=O)N3CCOCC3)c2)cc1F	–	inactive: -13%
COCCCN=CC1=C(O)CC(c2ccccc2)CC1=O (stereo unspecified)	–	inactive: -0.81%
Cc1ccccc1C(=O)Oc1cccc2c(O)cccc12	inconclusive [inhibitor, single point]	–
COc1cc(OC)c(OC)cc1/C=C1\Oc2cc(OS(C)(=O)=O)ccc2C1=O	–	inactive: -9.58%
NCCNc1ccc(C(=O)N2c3ccccc3Sc3ccccc32)cc1[N+](=O)[O-]	–	inactive: -28.1%
Cc1coc2c1c(C)cc1oc(=O)c(CC(=O)N[C@@H](C)C(=O)O)c(C)c12	–	inactive: -22.8%
Cc1ccc(CNC(=O)COc2ccc3c(c2)CCC3)cc1	inconclusive [inhibitor, single point]	–
O=C(CCCCCNC(=O)c1ccccc1)N/N=C/c1ccccc1O	active: 20 µM	–
O=C(O)c1cccc(S(=O)(=O)Nc2ccc([N+](=O)[O-])cc2O)c1	–	inactive: -4.77%
CCOC(=O)CCc1c(C)c2ccc(OCC(=O)N(CC)CC)c(C)c2oc1=O	inconclusive [inhibitor, single point]	–
COc1ccccc1-n1c(-c2ccccc2)c[n+]2c1CCc1ccccc1-2	active: 8.91 µM	–
CC(C)(C)c1ccc(OCc2ccc(C(=O)NCc3cccnc3)o2)cc1	active: 1.41 µM	–
Cc1ccc(-c2noc(-c3ccccc3C(=O)N3CCCC3)n2)cc1	–	inactive: 16.1%
O=C(Nc1nccs1)c1ccc(COc2c(F)c(F)cc(F)c2F)cc1	–	inactive: -12.5%
COc1ccc(/C=C2\OC(=O)c3c(OC)cccc32)cc1OC	–	inactive: -7.12%
CC1(C)CC(=O)C=C(NNC(=O)c2ccccc2O)C1	active: 11.2 µM	–
COc1ccc(NS(=O)(=O)c2cccc3nsnc23)cc1OC	inconclusive [inhibitor, single point]	–
CCC1(c2ccc(Cl)cc2)NC(=S)N(c2ccccc2)N1 (stereo unspecified)	inconclusive [inhibitor, single point]	–
O=C(Nc1ccc(Br)cc1)c1ccc2ncsc2c1	inconclusive [inhibitor, partial curve]	–
COc1ccc(C2=NN(C(=O)CCC(=O)O)C(c3cccs3)C2)cc1 (stereo unspecified)	–	inactive: -4.07%

Structure (SMILES)	Potency	activity, negative = inhibition
CCOC(=O)c1ncc2[nH]c3cccc(OC(C)C)c3c2c1C	inconclusive [inhibitor, single point]	–
CC(C)Oc1ccc(CNC(=S)Nc2ccccc2)cc1Cl	active: 11.2 µM	–
COC(=O)c1cc(=O)c2c([N+](=O)[O-])ccc(OC)c2o1	–	inactive: 1.49%
CC(C)(C)c1nc(SCC(=O)Nc2ccc(N3CCOCC3)cc2)c2ccccc2n1	inconclusive [inhibitor, single point]	–
CSc1cccc(NC(=S)N(CCN(C)C)C(C)c2ccccn2)c1 (stereo unspecified)	inconclusive [inhibitor, single point]	–
O=C(Nc1cccc(Cl)c1)N(Cc1nc2ccccc2c(=O)[nH]1)Cc1cccs1	–	inactive: -65%
CCCn1c(SCC(=O)N2c3ccccc3Sc3ccccc32)nc2ccccc21	inconclusive [inhibitor, single point]	–
CCN(CC)CCn1c(=N)n(CC(O)COc2cccc(C)c2)c2ccccc21 (stereo unspecified)	inconclusive [inhibitor, single point]	–
Cc1cccc(OCc2n[nH]c(=S)n2Cc2ccccc2)c1	inconclusive [inhibitor, full curve]	–
Cc1ccc(-c2noc(CCCC(=O)NCC3CCCO3)n2)cc1 (stereo unspecified)	inconclusive [inhibitor, single point]	–
Cc1nn2c(N)csc2nc1=O	–	inactive: -1.86%
COC(=O)c1ccc(Cn2nnc3c(=O)[nH]c(C4CCN(S(=O)(=O)c5cc(C)ccc5C)CC4)nc32)cc1	inconclusive [inhibitor, single point]	–
O=C(NCCO)Nc1ccc2nc(-c3ccco3)c(-c3ccco3)nc2c1	inconclusive [inhibitor, single point]	–
Cc1ccc(CNC(=O)CO/N=C/c2ccc(C(C)(C)C)cc2)cc1	active: 7.94 µM	–
O=C(Cc1ccccc1)N/N=C/c1cc(Br)cc(Br)c1O	active: 1.58 µM	–
Cc1ccc(N2C(=O)C3C(C2=O)C2C=CC3C23CC3)cc1 (stereo unspecified)	–	inactive: -6.95%
COc1ccc(/C=C2/S/C(=N/N=C3\CC4CCC3(C)C4(C)C)NC2=O)cc1 (stereo unspecified)	inconclusive [inhibitor, single point]	–
S=C(NCC1CCCO1)Nc1cc(Cl)c(Cl)cc1Cl (stereo unspecified)	active: 17.8 µM	–
Cc1cc(C)cc(NC(=O)CSc2ccc(-c3cccs3)nn2)c1	inconclusive [activator, single point]	–
CCSc1nnc(NC(=O)CSc2nnc(CNC(=O)c3cc(OC)c(OC)c(OC)c3)o2)s1	inconclusive [inhibitor, single point]	–
Cc1nnc(SCC(=O)N2N=C(c3ccc(Cl)cc3)CC2c2ccco2)[nH]c1=O (stereo unspecified)	–	inactive: -11% [at 10 µM]
CCOC(=O)c1ccc2ncc(C(=O)OCC)c(Nc3ccc(N4CCOCC4)cc3)c2c1	inconclusive [inhibitor, single point]	–
N#Cc1c2c(c(-c3ccccc3Cl)[nH]c1=S)CCCC2	active: 15.8 µM	–
Cc1ccc(C(=O)N/N=C\c2ccc[nH]2)cc1[N+](=O)[O-]	inconclusive [inhibitor, single point]	–
